In PubChem BioAssay AID686979 (National Center for Advancing Translational Sciences (NCATS), 2013):
“And” between values parts separate entries of the source, which are not always exact repeats. Equal entries are not always repeated. The campaign covered roughly 420,000 compounds. About 50,000 (12%) were called active. This list was built around the results that the source calls inconclusive (neither active nor inactive); the mix of calls is not that of the screen. The call rests on the fitted dose curve; in most records, active means well fitted inhibition curve with a large enough effect; inconclusive means small, poorly fitted or top-dose-only effect; inactive means flat fitted curve, though single readings scatter. Where the call is inconclusive, the potency comes from a doubtful curve fit.

Assay: qHTS for Inhibitors of human tyrosyl-DNA phosphodiesterase 1 (TDP1): qHTS in cells in presence of CPT; further: nearly all actives have a fitted effect of over 55% in size
Conditions: chicken DT40 Tdp1-/-;hTDP1 cells + 20 nM CPT, ATP luminescence, 48 h; activity change, negative = growth inhibition: at 46.2 µM (top of the series)
Outline: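 Cell growth measured by CellTiter-Glo luminescence after a minimum 48 h, 37 C compound exposure with 20 nM CPT in Tdp1-knockout DT40 cells stably expressing hTDP1, seeded 400/well; qHTS titration format.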
On the % scale 0 is the no-effect control and ±100 the full control effect; potency means the concentration at half of the fitted maximal effect; tags describe the fitted curve by direction and shape.

Compound	Potency	activity change, negative = growth inhibition
COc1ccc(-c2cc(C(=O)Nc3cc(Cl)ccc3O)no2)cc1	inconclusive: 29.1 µM [inhibitor, single point]	–
CCOC(=O)C1(Cc2cccc(OC)c2)CCN(Cc2cccc3cnccc23)CC1	active: 18.4 µM	–
CCCCn1c(N)nc2ccccc21	inconclusive: 29.1 µM [inhibitor, single point]	–
CCCCc1c(C)nc(Nc2ccc(OC)cc2)[nH]c1=O	inconclusive: 16.4 µM [inhibitor, single point]	–
Nc1cc(=O)[nH]n1C1CCCCC1	inactive	–
O=C(NCC1COc2ccccc2O1)C1CCCN(S(=O)(=O)c2cccc3nsnc23)C1 (centres undefined)	inconclusive: 20.6 µM [inhibitor, single point]	–
COc1ccc(/C=N/NC(=O)Cn2nc(C)c([N+](=O)[O-])c2C)cc1	active: 11.6 µM	–
O=C(c1cnc2n(c1=O)CCS2)N(C1CCCCC1)C1CCCCC1	inconclusive: 13 µM [inhibitor, partial curve]	–
CC/C(=N/Nc1ccccc1Cl)c1cnnc(-c2ccccc2)n1	inconclusive: 20.6 µM [inhibitor, partial curve]	–
CCC(Sc1nc(N)c(NC(=O)c2ccc(OC)cc2)c(=O)[nH]1)C(=O)O (centres undefined)	inactive	–
O=C(Nc1ccncc1)C1CCN(S(=O)(=O)c2ccccc2C(F)(F)F)CC1	active: 14.6 µM	–
COc1ccc(C(CNC(=O)c2cccc(S(=O)(=O)NCc3ccccc3)c2)N2CCOCC2)cc1 (centres undefined)	inconclusive: 25.9 µM [inhibitor, partial curve]	–
CCCCNC(=O)C1CCCN(S(=O)(=O)CCC)C1 (centres undefined)	inactive	–
CCc1nn(CC(=O)NC2CC2)c(=O)c2cc3c(OC)cccc3n12	inactive	–
NC(=O)c1cc[n+](CC(=O)c2ccc(NC(=O)c3ccccc3)cc2)cc1	inconclusive: 29.1 µM [inhibitor, single point]	–
CC(OC(=O)Cc1n[nH]c(=O)c2ccccc12)C(=O)Nc1cc(Cl)cc(Cl)c1 (centres undefined)	inconclusive: 29.1 µM [inhibitor, partial curve, poor fit]	–
COc1ccc(-n2ncc3c(NCCCOC(C)C)ncnc32)cc1	inconclusive: 23.1 µM [inhibitor, single point]	–
Cc1ccc2[nH]c(=O)c(CN(Cc3cccs3)Cc3nnnn3Cc3ccco3)cc2c1	inconclusive: 35.5 µM [inhibitor, single point]	–
CC(C)Oc1ccc(/C=C/C(=O)NCC2COc3ccccc3O2)cc1 (centres undefined)	inactive	–
Cc1cccc(N2CCN(C(c3ccccc3)c3nnnn3CC3CCCO3)CC2)c1C (centres undefined)	active: 20.6 µM	–
COc1cccc(Cn2cc(C(=O)c3ccccc3)c(=O)c3cc4c(cc32)OCO4)c1	inconclusive: 16.4 µM [inhibitor, single point]	–
CC(=O)Nc1ccc(N2C(=O)CSC2c2c(F)cccc2Cl)cc1 (centres undefined)	–	inconclusive: -32.6% [inhibitor]
COc1cccc(NC(=S)N(C)C2CCN(C)CC2)c1	inactive	–
COc1ccc2c(c1)c(CC(=O)Nc1ccc(C)cc1)c(C)n2C(=O)c1ccc(Cl)cc1	inconclusive: 20.6 µM [inhibitor, single point]	–
Cc1ccc(N)c(C(=O)CCCCC(=O)O)c1	inactive	–

Compound	Potency	activity change, negative = growth inhibition
[O-]c1n[n+](-c2ccc(Cl)cc2Cl)cc2ccccc12	inactive	–
CN(C)c1ccc(/C=C(\C#N)c2ccccc2)cc1	active: 2.59 µM	–
CO/N=C(/C(=O)N[C@@H]1C(=O)N2C(C(=O)OCOC(=O)C(C)(C)C)=C(C)CS[C@H]12)c1csc(N)n1	inconclusive: 29.9 µM [inhibitor, single point]	–
CC1CCC(NC(=O)C(=O)Nc2ccc3c(c2)OCO3)CC1 (centres undefined)	inconclusive: 16.4 µM [inhibitor, partial curve]	–
CCc1nc(SCC(=O)Nc2ccccc2Cl)n[nH]1	inactive	–
Cc1ccc(NCc2cccn2-c2nnc(N3CCC(C(=O)NCCc4ccc(Cl)cc4)CC3)s2)cc1	inconclusive: 18.4 µM [inhibitor, single point]	–
CCCCNC(=O)c1onc(CSc2ccc(Cl)cc2)c1C(=O)O	inconclusive: 29.1 µM [inhibitor, single point]	–
Cc1ccccc1OCC(=O)NNC(=S)NC(=O)c1ccco1	active: 22.4 µM	–
Cc1cc(C)cc(OCCCn2ccnc2)c1	inactive	–
CCc1ccccc1NC(=O)CN(C)C(=O)Cn1ncc(Cl)c(Cl)c1=O	active: 5.8 µM	–
COc1ccc(Cl)cc1-c1nc(SCC(=O)NC2CCCC2)n[nH]1	inconclusive: 18.4 µM [inhibitor, single point]	–
COc1cc(NCC(=O)Nc2cccc(S(=O)(=O)N3CCCCC3)c2)cc(OC)c1OC	inactive	–
Cn1c(=O)c2c(ncn2CC(=O)N2CCN(c3ccc(F)cc3)CC2)n(C)c1=O	inconclusive: 29.1 µM [inhibitor, single point]	–
COc1cccc(OCCn2cc(/C=N/NC(=O)c3ccncc3)c3ccccc32)c1	inconclusive: 18.4 µM [inhibitor, single point]	–
CCCCC(=O)NC(c1cccc([N+](=O)[O-])c1)c1c(OC(C)=O)ccc2ccccc12 (centres undefined)	inconclusive: 29.1 µM [inhibitor, single point]	–
Oc1ccc(CN2CCN(c3ncccn3)CC2)cc1	inactive	–
COc1ccc(/C(C)=N/NC(=O)CNC(=O)c2cccnc2)cc1OC	inactive	–
CCc1nn2c(=O)cc(COC(=O)c3cccc(NC(=O)CCc4ccccc4)c3)nc2s1	inconclusive: 6.51 µM [inhibitor, partial curve]	–
Cc1csc2ncnc(NCCc3ccccn3)c12	active: 6.51 µM	–
O=C(CSc1nc2ccccc2c(=O)[nH]1)Nc1ccccc1N1CCOCC1	inactive	–
CN(Cc1cccc(Cl)c1Cl)C(=O)c1ccc(NC(=O)CC#N)cc1	–	inconclusive: -35.2% [inhibitor]
Cc1cc(C)c(S(=O)(=O)Nc2ccnc(-c3cccnc3)n2)c(C)c1	inactive	–
COc1cccc(CN(C)C(=O)c2ccc(Cl)c(S(=O)(=O)N3CCCCCC3)c2)c1OC	inconclusive: 16.4 µM [inhibitor, single point]	–
CCCCCCC1/C(=N\NC(=O)c2ccccc2)CCC1C(=O)OC (centres undefined)	–	inconclusive: -30.8% [inhibitor]
O=C(CCN1C(=O)C2C3C=CC(C3)C2C1=O)Nc1ccccc1 (centres undefined)	inactive	–

Compound	Potency	activity change, negative = growth inhibition
C=CCNC(=S)N/N=C/c1ccc(-c2cc(Cl)ccc2Cl)o1	inconclusive: 16.4 µM [inhibitor, partial curve]	–
O=C(N/N=C/c1ccccn1)c1ccc([N+](=O)[O-])cc1Cl	inconclusive: 29.1 µM [inhibitor, single point]	–
Cc1onc(C(=O)Nc2sc3c(c2C(N)=O)CCCC3)c1[N+](=O)[O-]	inconclusive: 20.6 µM [inhibitor, single point]	–
CC(C)(O)C#Cc1ccc(CN2CCCC(CO)(Cc3cccc(Cl)c3)C2)cc1 (centres undefined)	active: 14.6 µM	–
O=C(NCc1nnc2n1CCN(Cc1cc(F)cc(F)c1)CC2)c1cccc(F)c1	active: 4.11 µM	–
CCCS(=O)(=O)c1nc(S(=O)(=O)c2ccc(C)cc2)c(N2CCN(CC)CC2)s1	inconclusive: 29.1 µM [inhibitor, single point]	–
COc1ccc(N2CCN(C(CNS(=O)(=O)c3ccc(C)cc3)c3ccccc3)CC2)cc1 (centres undefined)	inconclusive: 29.1 µM [inhibitor, single point]	–
COc1ccccc1CNC(=O)C1CCN(c2nc3ccc(Cl)cc3[nH]2)CC1	inconclusive: 20.6 µM [inhibitor, single point]	–
CN(C)Cc1ccccc1-c1cc(Nc2ccccc2)ncn1	inactive	–
CCCCc1c(-c2cccc(F)c2)ncn1CCc1ccccc1OC	active: 20.6 µM	–
CCc1nn(CC(=O)NCCc2ccc(OC)cc2OC)c(=O)c2cc3occc3n12	inactive and inconclusive: 29.1 µM [inhibitor, single point]	–
CCCCc1ccc(-n2nc3cc(C)c(NC(=O)c4ccc(C#N)cc4F)cc3n2)cc1	inactive	–
CC(=O)N1CCN(CC(=O)Nc2ccc(C)c(S(=O)(=O)N(C)C)c2)CC1	inactive	–
COc1cc(NC(=O)CN2C(=O)NC(c3ccccc3)(c3ccccc3)C2=O)c(C)cc1[N+](=O)[O-]	inconclusive: 29.1 µM [inhibitor, single point]	–
O=C(Nc1ncc(Br)s1)C(Cc1ccccc1)n1cccc1 (centres undefined)	inconclusive: 29.1 µM [inhibitor, single point]	–
Cc1cc(C)nc(-n2nc(C)cc2NC(=O)c2cccc(S(=O)(=O)N(C)C)c2)n1	inactive	–
N#C/C(=C\c1ccc(OCc2ccccc2)cc1)C(=O)Nc1ccc(C(=O)O)cc1	inactive	–
O=C(NC1CC(=O)N(c2ccc(F)cc2)C1)c1ccc(S(=O)(=O)N2CCCCC2)cc1 (centres undefined)	inconclusive: 20.6 µM [inhibitor, single point]	–
O=C(N/N=C/c1c(Cl)cccc1Cl)c1ccc(F)cc1	inactive	–
COc1ccc(CNC(=O)C2CC(C)=C(C)CC2C(=O)O)cc1 (centres undefined)	active: 9.2 µM	–
C/C(=N\NC(=O)c1ccc(Br)cc1)C1C(=O)c2ccccc2C1=O	inconclusive: 32.6 µM [inhibitor, single point]	–
O=C(O)c1cccc(S(=O)(=O)Nc2ccc(-c3ccccc3)cc2)c1	inactive	–
COc1ccc(-c2cn[nH]c2-c2ccc(OC)cc2)cc1	inconclusive: 20.6 µM [inhibitor, single point]	–
O=C(COC(=O)c1ccc(F)cc1)Nc1cc(S(=O)(=O)N2CCOCC2)ccc1N1CCCC1	inconclusive: 3.66 µM [inhibitor, full curve, poor fit]	–
